Assay results from PubChem BioAssay (NCATS).
The list shows a part of the results. Shown are side measurements of this screen, not its main read-out; they come without a call. Compounds called inactive in the main read-out are mostly missing here. Words in brackets tell the shape of the fitted curve; partial curves, single points and poor fits give uncertain potencies.

experiment: Cell-based coincidence reporter assay to measure PMP22 gene transcription in S16 Pmp22-F2sN cells - Confirmatory screen (AID 1508646); conditions: S16 Schwann cells Pmp22-F2sN, dual luciferase, 24 h; measured here: FLuc reporter channel
Source text: Assay Provider: Jim Inglese Ph.D. National Center for Advancing Translational Science, National Institutes of Health, Rockville, MD CMT is a heterogeneous group of neurological disorders that affect approximately 1 in 2,500 people. In particular, the most common form of CMT, CMT1A is genetically linked to the duplication of the PMP22 gene which leads to Schwann cell overexpression, thus manifesting itself as a typical case of dose-sensitive diseases. To identify small molecule compounds that can mediate the expression of PMP22 we developed a phenotypic assay screening strategy by utilizing genome editing techniques to construct Schwann cell lines containing novel reporter technology to monitor the transcriptional or translational regulation of PMP22. For high sensitivity we use a bioluminescent reporter system embedded in the 3' UTR of the PMP22 gene (S16(c9) Pmp22-F2sN) to identify compounds that inhibit gene expression. […] We can further discriminate the effect of all transcriptionally active molecules on PMP22 translation or stability with an assay that incorporates a short NLuc peptide (HiBiT) at the C-terminus of expressed PMP22 (S16(f8) PMP22-HiBiT) allowing alpha complementation and luminescence detection of membrane-associated PMP22 protein. These assays were screened against the NCATS Sytravon Library Collection. Miniaturization of these assays to 1536-well plate format for quantitative high throughput screening (qHTS) yielded rich data sets immediately from the qHTS assay (S16(c9) Pmp22-F2sN), when compared with data from a cell viability assay (Cell TiterGlo) to identify compounds that decreased the output signals through cellular toxicity to streamline the selection process of actives for subsequent characterization using the HiBiT assay (S16(f8) PMP22-HiBiT).
Cell-based coincidence reporter assay to measure PMP22 gene transcription in S16 Pmp22-F2sN cells PROTOCOL TABLE (format as described by Inglese J, Shamu CE and Guy RK. 2007) SEQUENCE No. (e.g., 1, 2, 3, etc.); PARAMETER (e.g., Cells, Incubation, Reagent, etc.); VALUE and DESCRIPTION. 1. Cells. Add 500-1,000 cells in 4 uL in growth media (DMEM High Glucose, No Phenol Red media + 10% heat-inactivated FBS + 1% Pen/Strep supplemented media) per well into Greiner 1536-well white/solid bottom high base, TC-treated plates. 2. Compounds. Library compounds and controls added at 23nL per well, transferred by Pin Tool. 3. Incubation. Incubate plates at 37C, 5% CO2, 95% RH for 24 h. 4. Reagent. Add 3.5uL Nano-Glo Dual-Luciferase Reporter Assay System reagent 1: Lysis and FLuc reagent per well of Greiner 1536-well plates. 5. Incubation. Incubate plates at room temperature for 10 min., protect from light. 6. Detector. FLuc luminescence measured using CCD-based camera (Viewlux). 7. Reagent. Add 3.5uL Nano-Glo Dual-Luciferase Reporter Assay System reagent 2: Stop&Glo reagent per well of Greiner 1536-well plates. 8. Incubation. Incubate plates at room temperature for 10 min., protect from light. 9. Detector. NLuc luminescence measured using CCD-based camera (Viewlux). NOTES (numbers refer to Sequence numbers above; values are from representative experiments) 6. Luminescence Read #1 (FLuc): Clear filter; Exposure = 10 sec, Gain = High, Speed = Slow, Binning = 2X 9. Luminescence Read #2 (NLuc): Clear filter; Exposure = 1 sec, Gain = High, Speed = Slow, Binning = 2X REFERENCES: 1. Inglese J, Shamu CE and Guy RK, Reporting data from high throughput screening of small molecule libraries, Nature Chemical Biology, 2007, 3(8): 438-441. doi.org/10.1038/nchembio0807-438 2. Yasgar A, Shinn P, Jadhav A, Auld DS, Michael S, Zheng W, Austin CP, Inglese J and Simeonov A, Compound Management for Quantitative High-Throughput Screening. J. Assoc. Lab. Auto., 2008, 13: 79-89. doi: 10.1016/j.jala.2007.12.004
Tags tell the direction and shape of the fitted curve.

SMILES	AC50
O=C(Cn1c(=O)n(Cc2ccccc2)c(=O)c2sc3ccccc3c21)Nc1ccc(F)cc1	15.3 µM [falling, partial curve, poor fit]
Cc1c(Cl)cccc1NC(=O)Cn1c(=O)n(Cc2ccco2)c(=O)c2sc3ccccc3c21	13.7 µM [falling, full curve]
Cc1ccc(C)n1-c1nnc(N2CCC(C(=O)NCc3ccccc3Cl)CC2)s1	43.2 µM [falling, single point]
CCc1ccccc1NC(=O)CSc1ncc(S(=O)(=O)c2ccc(C(C)C)cc2)c(N)n1	43.2 µM [falling, partial curve, poor fit]
CCOC(=O)c1c(NC(=O)c2ccc(S(=O)(=O)N3CCC(C)CC3)cc2)sc2c1CCN(C)C2	17.2 µM [falling, partial curve]
CCN(CC)c1ccc(NC(=O)CCCN2C(=O)C(c3ccccc3)Oc3cccnc32)c(C)c1 (stereo unspecified)	6.85 µM [falling, partial curve]
COc1ccc(NC(=O)Cn2c(=O)n(CCC(=O)NCc3ccccc3OC)c(=O)c3ccccc32)cc1Cl	13.7 µM [falling, full curve]
Cc1cc(C)cc(-n2c(SCC(=O)Nc3nnc(C)s3)nc3c([nH]c4ccccc43)c2=O)c1	43.2 µM [falling, single point]
COC(=O)c1c(-c2ccc(Cl)cc2)noc1N1CCN(c2cc(C)ccc2C)CC1	17.2 µM [falling, partial curve]
CCCC1=Nc2cc(C(=O)NC3CCCC3)ccc2Sc2ccc(C)cc21	5.44 µM [falling, full curve]
CCOC(=O)c1ccc(-c2ccc(/C=C(\C#N)C(=O)Nc3cccc(C)c3)o2)cc1	17.2 µM [falling, partial curve]
COc1ccccc1NC(=O)CSc1nc2nccnc2c(=O)n1CCc1c[nH]c2ccccc12	19.3 µM [falling, partial curve]
COc1cccc(-n2c(SCC(=O)Nc3c(C)cc(C)cc3C)nc3c([nH]c4ccccc43)c2=O)c1	21.7 µM [falling, partial curve]
CCOC(=O)c1ccc(NC(=O)CSc2nc3c([nH]c4ccccc43)c(=O)n2C)cc1	17.2 µM [falling, partial curve]
CCOC(=O)c1ccc(N2C(=O)c3n[nH]c(C)c3C2c2ccc(O)c(OC)c2)cc1 (stereo unspecified)	17.2 µM [falling, partial curve]
CCn1ccc2c(OCC(=O)Nc3ccccc3C(F)(F)F)cccc2c1=O	30.6 µM [falling, single point]
CCOc1ccccc1C(=O)Nc1c(C(=O)Nc2ccc(F)cc2)oc2ccccc12	6.85 µM [falling, partial curve]
COC(=O)CS(=O)(=O)c1nc2ccccc2nc1N1CCCCC1	12.2 µM [falling, partial curve]
Cc1ccc(Cl)cc1N1CCN(CCCNc2ncnc3onc(-c4ccc(Cl)cc4)c23)CC1	12.2 µM [falling, partial curve, poor fit]
CCOC(=O)N1CCN(Cc2nc3cc(NC(=O)c4ccc([N+](=O)[O-])cc4)ccc3n2C(C)C)CC1	27.3 µM [falling, single point]

same assay, conditions: S16 Schwann cells Pmp22-F2sN, dual luciferase, 24 h; measured here: NLuc reporter channel

SMILES	AC50
O=C(Cn1c(=O)n(Cc2ccccc2)c(=O)c2sc3ccccc3c21)Nc1ccc(F)cc1	21.7 µM [falling, partial curve]
Cc1c(Cl)cccc1NC(=O)Cn1c(=O)n(Cc2ccco2)c(=O)c2sc3ccccc3c21	17.2 µM [falling, partial curve]
Cc1ccc(C)n1-c1nnc(N2CCC(C(=O)NCc3ccccc3Cl)CC2)s1	38.5 µM [falling, partial curve, poor fit]
CCc1ccccc1NC(=O)CSc1ncc(S(=O)(=O)c2ccc(C(C)C)cc2)c(N)n1	38.5 µM [falling, single point]
CCOC(=O)c1c(NC(=O)c2ccc(S(=O)(=O)N3CCC(C)CC3)cc2)sc2c1CCN(C)C2	19.3 µM [falling, partial curve]
CCN(CC)c1ccc(NC(=O)CCCN2C(=O)C(c3ccccc3)Oc3cccnc32)c(C)c1 (stereo unspecified)	10.9 µM [falling, partial curve, poor fit]
COc1ccc(NC(=O)Cn2c(=O)n(CCC(=O)NCc3ccccc3OC)c(=O)c3ccccc32)cc1Cl	12.2 µM [falling, full curve]
CCOc1ccccc1NC(=O)CSc1nc2c(oc3ccccc32)c(=O)n1Cc1ccco1	9.68 µM [falling, partial curve, poor fit]
Cc1cc(C)cc(-n2c(SCC(=O)Nc3nnc(C)s3)nc3c([nH]c4ccccc43)c2=O)c1	43.2 µM [falling, partial curve, poor fit]
COC(=O)c1c(-c2ccc(Cl)cc2)noc1N1CCN(c2cc(C)ccc2C)CC1	17.2 µM [falling, partial curve]
CCCC1=Nc2cc(C(=O)NC3CCCC3)ccc2Sc2ccc(C)cc21	3.43 µM [falling, full curve]
CCOC(=O)c1ccc(-c2ccc(/C=C(\C#N)C(=O)Nc3cccc(C)c3)o2)cc1	17.2 µM [falling, partial curve]
COc1ccccc1NC(=O)CSc1nc2nccnc2c(=O)n1CCc1c[nH]c2ccccc12	8.62 µM [falling, full curve, poor fit]
COc1cccc(-n2c(SCC(=O)Nc3c(C)cc(C)cc3C)nc3c([nH]c4ccccc43)c2=O)c1	15.3 µM [falling, partial curve]
CCOC(=O)c1ccc(NC(=O)CSc2nc3c([nH]c4ccccc43)c(=O)n2C)cc1	21.7 µM [falling, partial curve]
CCOC(=O)c1ccc(N2C(=O)c3n[nH]c(C)c3C2c2ccc(O)c(OC)c2)cc1 (stereo unspecified)	21.7 µM [falling, partial curve]
CCn1ccc2c(OCC(=O)Nc3ccccc3C(F)(F)F)cccc2c1=O	12.2 µM [falling, partial curve, poor fit]
CCOc1ccccc1C(=O)Nc1c(C(=O)Nc2ccc(F)cc2)oc2ccccc12	4.32 µM [falling, partial curve]
COC(=O)CS(=O)(=O)c1nc2ccccc2nc1N1CCCCC1	7.69 µM [falling, full curve]
Cc1ccc(Cl)cc1N1CCN(CCCNc2ncnc3onc(-c4ccc(Cl)cc4)c23)CC1	3.85 µM [falling, partial curve, poor fit]
CCOC(=O)N1CCN(Cc2nc3cc(NC(=O)c4ccc([N+](=O)[O-])cc4)ccc3n2C(C)C)CC1	6.11 µM [falling, partial curve, poor fit]
